Data from publication PMC11993684, “Fibromodulin selectively accelerates myofibroblast apoptosis in cutaneous wounds by enhancing interleukin 1β signaling” (Nature Communications, 2025).
Results are given in words; binding and its absence hold for the method and conditions named. For some of these results: Binding seen in cells or lysates may run through a third protein. Some binding calls cover weakened binding; strength is not graded here. For some of these results: Tags and fused reporters may be left off the sequences shown.

Sequences of proteins named here, by UniProt entry; tags and fusion partners are left off. A change or cut given only in a name is not applied to a line headed by its entry. Residues count along the entry.
UniProt Q9NPH3: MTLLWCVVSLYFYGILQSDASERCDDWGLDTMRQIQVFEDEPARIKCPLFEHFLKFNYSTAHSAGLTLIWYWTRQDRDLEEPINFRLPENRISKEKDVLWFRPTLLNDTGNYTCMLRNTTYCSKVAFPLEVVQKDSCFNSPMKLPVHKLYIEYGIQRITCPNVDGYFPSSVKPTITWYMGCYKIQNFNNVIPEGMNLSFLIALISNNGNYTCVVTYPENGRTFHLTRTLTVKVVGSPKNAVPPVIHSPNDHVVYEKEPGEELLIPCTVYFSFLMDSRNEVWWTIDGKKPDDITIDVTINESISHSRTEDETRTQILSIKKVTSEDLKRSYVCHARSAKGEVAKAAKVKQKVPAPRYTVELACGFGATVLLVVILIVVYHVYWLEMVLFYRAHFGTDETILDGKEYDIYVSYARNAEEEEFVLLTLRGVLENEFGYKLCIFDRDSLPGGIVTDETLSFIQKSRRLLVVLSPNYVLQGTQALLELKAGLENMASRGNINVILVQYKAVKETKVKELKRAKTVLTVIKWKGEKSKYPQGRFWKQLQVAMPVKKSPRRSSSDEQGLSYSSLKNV
UniProt P01584, residues 117-269: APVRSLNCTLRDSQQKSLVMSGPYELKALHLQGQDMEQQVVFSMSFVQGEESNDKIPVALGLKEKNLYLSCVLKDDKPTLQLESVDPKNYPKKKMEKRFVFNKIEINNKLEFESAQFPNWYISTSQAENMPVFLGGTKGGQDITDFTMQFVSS

T1: recombinant human fibromodulin (FMOD) with C-terminal His-tag (human) (UniProt Q06828)
T1 sequence: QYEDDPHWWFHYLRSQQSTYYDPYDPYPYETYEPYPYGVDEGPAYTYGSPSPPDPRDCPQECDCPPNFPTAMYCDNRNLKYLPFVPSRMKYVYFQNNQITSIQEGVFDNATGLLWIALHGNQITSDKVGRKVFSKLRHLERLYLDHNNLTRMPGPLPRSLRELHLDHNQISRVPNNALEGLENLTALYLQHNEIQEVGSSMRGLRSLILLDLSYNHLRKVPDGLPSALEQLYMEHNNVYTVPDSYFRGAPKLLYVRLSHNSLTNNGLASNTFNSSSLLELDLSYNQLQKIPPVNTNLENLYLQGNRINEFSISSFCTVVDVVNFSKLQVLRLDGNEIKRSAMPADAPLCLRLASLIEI


Legend:
[1] = biological target: T1, recombinant human fibromodulin (FMOD) with C-terminal His-tag (human); test: pull-down; Pierce His Protein Interaction Pull-Down Kit; His-tagged FMOD as bait incubated in vitro with 200 μg whole membrane protein extracted from BJ-myofibroblasts (Mem-PER Plus kit); eluate by SDS-PAGE and Western blotting; only the target purified
[2] = biological target: endogenous IL1R1 of BJ-myofibroblasts (human (endogenous in BJ-myofibroblasts)) (UniProt P14778); test: proximity ligation; Duolink in situ PLA on attached, serum-starved BJ-myofibroblasts fixed with acetone 1-72 h after treatment with FMOD and/or IL1β; endogenous partners; confocal microscopy, PLA signals per cell
[3] = biological target: endogenous IL1R1 of BJ-myofibroblasts (human (endogenous in BJ-myofibroblasts)) (UniProt P14778); test: proximity ligation; Duolink flowPLA Detection Kit - Green, BJ-myofibroblasts detached with Accutase 24 h after treatment with FMOD and/or IL1β; endogenous partners; read by flow cytometry (percentage of PLA-HIGH cells)
[4] = biological target: T1, recombinant human fibromodulin (FMOD) with C-terminal His-tag (human); test: pull-down; Pierce His Protein Interaction Pull-Down Kit; 150 μg His-tagged FMOD immobilised as bait; His-tag-free 100 μg IL1β, 100 μg IL1R1, 100 μg IL1RAP, or the complex formed beforehand (100 μg IL1β, 50 μg IL1R1, 50 μg IL1RAP, 4 °C overnight) as prey; eluate by SDS-PAGE and Western blotting; both purified

Molecule | binding [1] | binding [2] | binding [3] | binding [4]
endogenous IL1R1 of BJ-myofibroblasts (from UniProt P14778 18-569) (receptor) | binds | – | – | –
endogenous IL1RAP of BJ-myofibroblasts (from UniProt Q9NPH3 21-570) (receptor) | binds | binds | binds | –
recombinant IL1R1 (R&D Systems 269-1R-100/CF) (receptor, human, UniProt P14778 18-336, looked up, interleukin 1 receptor type 1, recombinant, His-tag-free, 55 kDa on SDS-PAGE, carrier-free; also called interleukin 1 receptor type 1; source: bought: R&D Systems (carrier-free)) LEADKCKEREEKIILVSSANEIDVRPCPLNPNEHKGTITWYKDDSKTPVSTEQASRIHQHKEKLWFVPAKVEDSGHYYCVVRNSSYCLRIKISAKFVENEPNLCYNAQAIFKQKLPVAGDGGLVCPYMEFFKNENNELPKLQWYKDCKPLLLDNIHFSGVKDRLIVMNVAEKHRGNYTCHASYTYLGKQYPITRVIEFITLEENKPTRPVIVSPANETMEVDLGSQIQLICNVTGQLSDIAYWKWNGSVIDEDDPVLGEDYYSVENPANKRRSTLITVLNISEIESRFYKHPFTCFAKNTHGIDAAYIQLIYPVTNFQK | – | – | – | binds

More lines, now with the values ahead:

binding [1] | binding [2] | binding [3] | binding [4] | Molecule
– | – | – | binds | recombinant IL1RAP (R&D Systems 676-CP-100/CF) (from UniProt Q9NPH3 21-367) (receptor)
– | – | – | no binding (tested: 100 μg) | recombinant human IL1β (R&D Systems 201-LB-010/CF) (from UniProt P01584 117-269) (ligand)
